Test results taken from the supplement of paper PMC8728848.
The other results are listed elsewhere or left out.

Assays:
Experiment in all cases: glycan array binding signal (z-score within array); higher = stronger binding
Settings in all cases: glycan notation: IUPAC condensed, linker removed
[1] = molecular target: Fuc(a1-2)Gal(b1-4)[Fuc(a1-3)]GlcNAc
How it was run: (§1)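 From the Consortium for Functional Glycomics database, 3228 arrays were curated, keeping only those whose protein sequence was available. Binding is given as a within-array Z-score averaged across arrays sharing a protein sequence and across linkers. Negative Z-scores can be read as non-binding.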

[2] = molecular target: Fuc(a1-2)Gal(b1-4)[Fuc(a1-3)]GlcNAc(b1-2)Man(a1-3)[Fuc(a1-2)Gal(b1-4)[Fuc(a1-3)]GlcNAc(b1-2)Man(a1-6)]Man(b1-4)GlcNAc(b1-4)GlcNAc
How it was run: as §1

[3] = molecular target: Fuc(a1-2)Gal(b1-4)[Fuc(a1-3)]GlcNAc(b1-2)[Fuc(a1-2)Gal(b1-4)[Fuc(a1-3)]GlcNAc(b1-4)]Man(a1-3)[Fuc(a1-2)Gal(b1-4)[Fuc(a1-3)]GlcNAc(b1-2)Man(a1-6)]Man(b1-4)GlcNAc(b1-4)GlcNAc
How it was run: as §1

[4] = molecular target: Fuc(a1-2)Gal(b1-4)[Fuc(a1-3)]GlcNAc(b1-3)Gal(b1-4)[Fuc(a1-3)]GlcNAc
How it was run: as §1

[5] = molecular target: Fuc(a1-2)Gal(b1-4)[Fuc(a1-3)]GlcNAc(b1-3)Gal(b1-4)[Fuc(a1-3)]GlcNAc(b1-3)Gal(b1-4)[Fuc(a1-3)]GlcNAc
How it was run: as §1

[6] = molecular target: Fuc(a1-2)Gal(b1-4)[Fuc(a1-3)]GlcNAc(b1-3)GalNAc
How it was run: as §1

[7] = molecular target: Fuc(a1-2)Gal6S(b1-4)Glc
How it was run: as §1

[8] = molecular target: Fuc(a1-2)Gal6S(b1-4)Glc6S
How it was run: as §1

[9] = molecular target: Fuc(a1-2)Gal6S(b1-4)GlcNAc
How it was run: as §1

[10] = molecular target: Fuc(a1-2)[Gal(a1-3)]Gal
How it was run: as §1

[11] = molecular target: Fuc(a1-2)[Gal(a1-3)]Gal(b1-3)GalNAc
How it was run: as §1

[12] = molecular target: Fuc(a1-2)[Gal(a1-3)]Gal(b1-3)GlcNAc
How it was run: as §1

[13] = molecular target: Fuc(a1-2)[Gal(a1-3)]Gal(b1-3)GlcNAc(b1-2)Man(a1-3)[Fuc(a1-2)[Gal(a1-3)]Gal(b1-3)GlcNAc(b1-2)Man(a1-6)]Man(b1-4)GlcNAc(b1-4)GlcNAc
How it was run: as §1

[14] = molecular target: Fuc(a1-2)[Gal(a1-3)]Gal(b1-3)GlcNAc(b1-2)Man(a1-3)[Fuc(a1-2)[Gal(a1-3)]Gal(b1-3)GlcNAc(b1-2)Man(a1-6)]Man(b1-4)GlcNAc(b1-4)[Fuc(a1-6)]GlcNAc
How it was run: as §1

[15] = molecular target: Fuc(a1-2)[Gal(a1-3)]Gal(b1-3)GlcNAc(b1-3)GalNAc
How it was run: as §1

[16] = molecular target: Fuc(a1-2)[Gal(a1-3)]Gal(b1-4)Glc
How it was run: as §1

[17] = molecular target: Fuc(a1-2)[Gal(a1-3)]Gal(b1-4)GlcNAc
How it was run: as §1

[18] = molecular target: Fuc(a1-2)[Gal(a1-3)]Gal(b1-4)GlcNAc(b1-2)Man(a1-3)[Fuc(a1-2)[Gal(a1-3)]Gal(b1-4)GlcNAc(b1-2)Man(a1-6)]Man(b1-4)GlcNAc(b1-4)GlcNAc
How it was run: as §1

[19] = molecular target: Fuc(a1-2)[Gal(a1-3)]Gal(b1-4)GlcNAc(b1-2)Man(a1-3)[Fuc(a1-2)[Gal(a1-3)]Gal(b1-4)GlcNAc(b1-2)Man(a1-6)]Man(b1-4)GlcNAc(b1-4)[Fuc(a1-6)]GlcNAc
How it was run: as §1

[20] = molecular target: Fuc(a1-2)[Gal(a1-3)]Gal(b1-4)GlcNAc(b1-3)GalNAc
How it was run: as §1

[21] = molecular target: Fuc(a1-2)[Gal(a1-3)]Gal(b1-4)[Fuc(a1-3)]Glc
How it was run: as §1

[22] = molecular target: Fuc(a1-2)[Gal(a1-3)]Gal(b1-4)[Fuc(a1-3)]GlcNAc
How it was run: as §1

[23] = molecular target: Fuc(a1-2)[Gal(a1-3)]Gal(b1-4)[Fuc(a1-3)]GlcNAc(b1-3)GalNAc
How it was run: as §1

[24] = molecular target: Fuc(a1-2)[Gal(a1-4)]Gal(b1-4)GlcNAc
How it was run: as §1

[25] = molecular target: Fuc(a1-2)[GalNAc(a1-3)]Gal
How it was run: as §1

[26] = molecular target: Fuc(a1-2)[GalNAc(a1-3)]Gal(b1-3)GalNAc(a1-3)[Fuc(a1-2)]Gal(b1-4)GlcNAc
How it was run: as §1

[27] = molecular target: Fuc(a1-2)[GalNAc(a1-3)]Gal(b1-3)GlcNAc
How it was run: as §1

[28] = molecular target: Fuc(a1-2)[GalNAc(a1-3)]Gal(b1-3)GlcNAc(b1-2)Man(a1-3)[Fuc(a1-2)[GalNAc(a1-3)]Gal(b1-3)GlcNAc(b1-2)Man(a1-6)]Man(b1-4)GlcNAc(b1-4)GlcNAc
How it was run: as §1

[29] = molecular target: Fuc(a1-2)[GalNAc(a1-3)]Gal(b1-3)GlcNAc(b1-2)Man(a1-3)[Fuc(a1-2)[GalNAc(a1-3)]Gal(b1-3)GlcNAc(b1-2)Man(a1-6)]Man(b1-4)GlcNAc(b1-4)[Fuc(a1-6)]GlcNAc
How it was run: as §1

[30] = molecular target: Fuc(a1-2)[GalNAc(a1-3)]Gal(b1-3)GlcNAc(b1-3)GalNAc
How it was run: as §1

B1: RS2L (Ralstonia solanacearum), B5RXL5_RALSO (protein)
chain: MAQQGVFTLPANTSFGVTAFANAANTQTIQVLVDNVVKATFTGSGTSDKLLGSQVLNSGSGAIKIQVSVNGKPSDLVSNQTILANKLNFAMVGSEDGTDNDYNDGIAVLNWPLG
- glycan array binding signal (z-score) [1]: 0.025
- glycan array binding signal (z-score) [2]: -0.237
- glycan array binding signal (z-score) [3]: -0.175
- glycan array binding signal (z-score) [4]: 0.111
- glycan array binding signal (z-score) [5]: -0.005
- glycan array binding signal (z-score) [6]: -0.224
- glycan array binding signal (z-score) [7]: -0.15
- glycan array binding signal (z-score) [8]: 0.115
- glycan array binding signal (z-score) [9]: 0.082
- glycan array binding signal (z-score) [10]: -0.165
- glycan array binding signal (z-score) [11]: -0.241
- glycan array binding signal (z-score) [12]: -0.244
- glycan array binding signal (z-score) [13]: 0.26
- glycan array binding signal (z-score) [14]: 1.19
- glycan array binding signal (z-score) [15]: -0.241
- glycan array binding signal (z-score) [16]: -0.252
- glycan array binding signal (z-score) [17]: -0.25
- glycan array binding signal (z-score) [18]: -0.19
- glycan array binding signal (z-score) [19]: 0.421
- glycan array binding signal (z-score) [20]: -0.237
- glycan array binding signal (z-score) [21]: -0.209
- glycan array binding signal (z-score) [22]: -0.246
- glycan array binding signal (z-score) [23]: -0.242
- glycan array binding signal (z-score) [24]: 0.019
- glycan array binding signal (z-score) [25]: -0.228
- glycan array binding signal (z-score) [26]: -0.231
- glycan array binding signal (z-score) [27]: -0.254
- glycan array binding signal (z-score) [28]: -0.044
- glycan array binding signal (z-score) [29]: 1.32
- glycan array binding signal (z-score) [30]: -0.219
